This note sets out measurements from paper PMC4336329 (PLoS ONE, 2015).

Hit rate of the full screen: of about 310,000 compounds, about 14,000 (4.5%) showed an effect of 50% or more. Effects have a minus sign here. The list shows a part of the results.
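Note: peak tail current of the secondary pulse compared with the same well before compound.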

Chain of human ether-à-go-go-related gene (hERG) potassium channel (Q12809 whole entry, looked up): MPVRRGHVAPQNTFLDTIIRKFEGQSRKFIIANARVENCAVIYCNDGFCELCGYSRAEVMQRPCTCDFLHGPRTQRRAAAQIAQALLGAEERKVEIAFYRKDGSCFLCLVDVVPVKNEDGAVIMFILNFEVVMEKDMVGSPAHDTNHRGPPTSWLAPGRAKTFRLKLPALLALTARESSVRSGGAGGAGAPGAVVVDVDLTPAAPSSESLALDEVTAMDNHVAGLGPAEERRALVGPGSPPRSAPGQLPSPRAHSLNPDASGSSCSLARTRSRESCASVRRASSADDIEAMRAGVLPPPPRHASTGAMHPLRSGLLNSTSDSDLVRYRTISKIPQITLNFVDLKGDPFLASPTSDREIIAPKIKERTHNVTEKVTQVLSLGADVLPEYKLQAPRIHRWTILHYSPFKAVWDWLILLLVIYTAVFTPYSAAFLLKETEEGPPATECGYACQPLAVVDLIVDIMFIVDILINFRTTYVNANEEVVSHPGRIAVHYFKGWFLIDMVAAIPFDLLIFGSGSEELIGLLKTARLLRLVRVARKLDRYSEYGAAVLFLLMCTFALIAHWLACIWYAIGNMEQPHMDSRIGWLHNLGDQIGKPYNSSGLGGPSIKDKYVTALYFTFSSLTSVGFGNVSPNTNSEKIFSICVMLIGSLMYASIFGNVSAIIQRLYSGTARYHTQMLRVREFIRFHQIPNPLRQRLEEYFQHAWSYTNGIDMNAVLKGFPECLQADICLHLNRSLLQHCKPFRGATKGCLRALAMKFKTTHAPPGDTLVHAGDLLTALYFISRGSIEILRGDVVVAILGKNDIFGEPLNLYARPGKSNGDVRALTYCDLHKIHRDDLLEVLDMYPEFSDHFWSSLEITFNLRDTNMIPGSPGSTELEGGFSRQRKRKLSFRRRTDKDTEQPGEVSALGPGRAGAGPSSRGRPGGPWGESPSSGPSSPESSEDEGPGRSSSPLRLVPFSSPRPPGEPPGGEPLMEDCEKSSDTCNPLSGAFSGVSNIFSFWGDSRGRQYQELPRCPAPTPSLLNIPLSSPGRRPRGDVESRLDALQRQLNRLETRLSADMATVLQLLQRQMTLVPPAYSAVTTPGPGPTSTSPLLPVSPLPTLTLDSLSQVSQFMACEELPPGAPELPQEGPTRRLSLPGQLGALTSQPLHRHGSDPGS

The assay addresses human ether-à-go-go-related gene (hERG) potassium channel (human, UniProt Q12809). In words: primary screen, population patch clamp on CHO cells stably expressing hERG.
For `CC(C)CN(C(=O)COc1cccc(-n2cnnn2)c1)C1CCS(=O)(=O)C1` (centres unmarked), the “hERG current change (%, negative = inhibition) at 10uM” value is given as -12.6%.

On to `NC(=O)c1cc([N+](=O)[O-])ccc1NCc1ccccn1`, for which the “hERG current change (%, negative = inhibition) at 10uM” value was -73.8%. In the case of `Cc1cccc(CSC(Nc2ccc(F)cc2)=C(C#N)C#N)c1`, the “hERG current change (%, negative = inhibition) at 10uM” value is reported as -2.69%. Consider `C[C@H](NC(=O)c1[nH]cnc1C(=O)Nc1ccc(Cl)cc1)C(=O)OC(C)(C)C`, for which the “hERG current change (%, negative = inhibition) at 10uM” value was found to be 24.6%.

For the compound `CC(C)(C)c1ccc(C(=O)N2CCN(CCNC(=O)C(=O)NCc3ccccc3)CC2)cc1`, the “hERG current change (%, negative = inhibition) at 10uM” value is given as -57%. In the case of `CC1CCCC(NC(=O)CCC(=O)NCc2ccccc2)C1C` (centres unmarked), the “hERG current change (%, negative = inhibition) at 10uM” value worked out at 11.5%.

Consider `COc1cccc(-n2cnnn2)c1`, for which the “hERG current change (%, negative = inhibition) at 10uM” value was found to be 4.13%. As to `CC(C)(C)NCC(O)COc1cccc2c1C[C@H](O)[C@H](O)C2` (some centres unmarked), the “hERG current change (%, negative = inhibition) at 10uM” value came out at 29%. `Cc1ccc(C)c(NC(=O)c2cc3ccccc3o2)c1`: the “hERG current change (%, negative = inhibition) at 10uM” value is -12.9%.

Regarding `O=C(NC(=S)Nc1cccc2cc(O)ccc12)c1ccccc1Br`, the “hERG current change (%, negative = inhibition) at 10uM” value came out at 6.9%. Regarding `CS(=O)(=O)c1ccc(-c2nnc(NC(=O)c3ccc(S(=O)(=O)N4CCCC4)cc3)o2)cc1`, the “hERG current change (%, negative = inhibition) at 10uM” value was -15%. `O=C1CS(=O)(=O)c2ccccc2N1`: the “hERG current change (%, negative = inhibition) at 10uM” value is reported as 22.5%. As to `CCN1C(=O)C(CC(=O)NCCc2ccccc2)N(NC(=O)c2cccnc2)C1=S` (centres unmarked), the “hERG current change (%, negative = inhibition) at 10uM” value is recorded as -21.1%.

`CC(C)(C)c1ccc(C(=O)NNc2cc(N3CCCCC3)nc(N3CCCCC3)n2)cc1`: the “hERG current change (%, negative = inhibition) at 10uM” value was found to be 16.5%. `CC(=O)Nc1ccc(NC(=O)CN(c2cccc(C)c2)S(C)(=O)=O)cc1`: the “hERG current change (%, negative = inhibition) at 10uM” value was -5.23%. With `COc1cccc(C(=O)Nc2ccccc2N2CCOCC2)c1`, the “hERG current change (%, negative = inhibition) at 10uM” value is -29.5%. As for `CCn1nc(C)cc1C(=O)Sc1cccc(Cl)c1`, the “hERG current change (%, negative = inhibition) at 10uM” value was 13.3%. Take `CCOC(=O)c1sc(NC(=O)CSc2nncn2C)nc1C`: the “hERG current change (%, negative = inhibition) at 10uM” value amounted to 9.68%. As to `COc1ccccc1-c1cnnc(N/N=C/c2ccc(-c3cccc(Br)c3)o2)n1`, the “hERG current change (%, negative = inhibition) at 10uM” value is given as 12%. Turning to `CSCCC(NC(=O)c1ccccc1)C(=O)NC1CCCC1` (centres unmarked), the “hERG current change (%, negative = inhibition) at 10uM” value is reported as -3.79%.

For the compound `Cc1n[nH]c(C)c1S(=O)(=O)N(CC(=O)NC1CCCC1)c1ccc(C(C)C)cc1`, the “hERG current change (%, negative = inhibition) at 10uM” value is 12%.

As to `COc1ccc(/C=C2/C(=O)N(c3cccc(F)c3)N=C2C)c(OC)c1`, the “hERG current change (%, negative = inhibition) at 10uM” value was 13.4%. For `COc1ccc(/C=C/c2cccc[n+]2C)c(O)c1.[I-]`, the “hERG current change (%, negative = inhibition) at 10uM” value is on record as 31.5%. As for `Cc1ccc(-c2nn(-c3ccccc3)cc2C=O)o1`, the figure is -22.5%; as for `Cc1cc(C)cc(NC(=O)NCc2nnc(SCc3ccccc3)n2C)c1`, 3.34%; as for `O=C(c1cc(=O)[nH]c2ccccc12)N1CCN(c2ccc([N+](=O)[O-])cc2)CC1`, -65.1%. On to `CCOC(=O)C1(CC2CCCCO2)CCN(Cc2cc(F)ccc2-n2cccn2)CC1` (centres unmarked), for which the “hERG current change (%, negative = inhibition) at 10uM” value is recorded as -57.1%. Turning to `COc1ccc(N2C(=O)CCC(C(=O)NCCCN3CCC(C)CC3)C2c2ccc(OC)c(OC)c2)cc1` (centres unmarked), the “hERG current change (%, negative = inhibition) at 10uM” value amounted to 5.44%. Consider `CCc1ccc(NC(=O)C/C(C)=N/NC(=O)COc2ccccc2C)cc1`, for which the “hERG current change (%, negative = inhibition) at 10uM” value is -53.2%. In the case of `Cc1ccc(C)c(N2CCN(C(=O)c3csc4ccccc34)CC2)c1` it was -12.9%; in that of `Cc1c(C)c2c(C)nn(-c3ccccc3)c2[nH]c1=O`, 16.8%. In the case of `CCOC(=O)Nc1ccc2c(CN(C)Cc3ccc(F)cc3)cc(=O)oc2c1`, the “hERG current change (%, negative = inhibition) at 10uM” value stood at 8.06%. For the compound `COc1ccccc1N1CCN(C(=O)c2cc(C3CC3)on2)CC1`, the “hERG current change (%, negative = inhibition) at 10uM” value is -24%.

`Cc1c(C)c2ccc(OCC(=O)N3CCC[C@@H]3C(=O)O)c(C)c2oc1=O`: the “hERG current change (%, negative = inhibition) at 10uM” value is listed as 17.1%. In the case of `O=S(=O)(NCc1cn2ccccc2n1)c1cc(F)ccc1F` it was 8.31%; in that of `O=C(COc1ccc([N+](=O)[O-])cc1)NNC(=O)Nc1cccc(F)c1`, -11.3%; in that of `COc1cc(/C=C(\C#N)C(=O)Nc2ccccc2)ccc1OCCN1CCOCC1`, -21.7%. With `Cc1ccc(NC(=O)c2ccccc2NS(=O)(=O)c2ccc(Cl)s2)cc1S(=O)(=O)N1CCOCC1`, the “hERG current change (%, negative = inhibition) at 10uM” value was determined as 0.321%.

`COc1cccc(C(=O)Nc2nc(C)cs2)c1`: the “hERG current change (%, negative = inhibition) at 10uM” value is given as -7.15%. In the case of `Cc1ccc(C(=O)C2=C(O)C(=O)N(Cc3cccnc3)C2c2ccc(Cl)cc2)o1` (centres unmarked) it was 20%. On to `CCCn1c(SCC(=O)NC)nnc1C(C)C`, for which the “hERG current change (%, negative = inhibition) at 10uM” value is recorded as 16.7%. As to `N#Cc1ccc(CSc2nnc(-c3cccnc3)n2-c2ccccc2)cc1`, the “hERG current change (%, negative = inhibition) at 10uM” value is on record as -71.2%. As for `CCOC(=O)c1nn(-c2ccc(C)c(C)c2)c(=O)c2c(N)scc12`, the figure is -4.22%; as for `O=C(CSc1nc(SCC(=O)NCc2ccccc2)n(-c2ccccc2)n1)NCc1ccccc1`, -25.6%.
